PubChem BioAssay (NCATS)
Inconclusive results, whose numbers are uncertain, are shown with a selection of clear calls. Where a call stands in place of a potency, no number is given. Potencies of inconclusive entries are doubtful fits and often do not repeat. The source made the active and inactive calls. Calls come from the whole dose curve; as a rule, active = well fitted cell-killing curve with a large enough effect; inconclusive = small, poorly fitted or top-dose-only effect, or effect the other way; inactive = flat fitted curve, though single readings scatter. Where a SMILES comes first, the peptide text is derived from it. [ ]: non-standard residue; d: D form. Ala(indol-2-yl) = N[C@@H](Cc1cc2ccccc2[nH]1)C(=O)O; Aib = CC(C)(N)C(=O)O

Each compound was assayed on PA-1 (assay: Primary qHTS to identify gynecologic anti-cancer compounds using libraries of approved drugs and bioactive compounds (AID 1345084; note: nearly all actives have a fitted effect of over 55% in size)). Conditions: Gynecologic cancer cell panel viability, ATPlite luminescence, 48 h; series mostly up to 57.5 µM.
Method in brief: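 Five-point cytotoxicity, 48 h drug exposure at 37 C, 5% CO2, on cells seeded 16 h beforehand. ATP content read by ATPlite luminescence.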
Potency is the fitted concentration of half-maximal effect; tags give direction and shape of the fitted curve.

Structure (SMILES)	Potency	activity change, negative = cytotoxicity
O=C1OC(CCN2CCCCC2)OC1(c1ccccc1)c1ccccc1 (configuration not stated)	inactive	
C[C@H]1[C@@H]2Cc3ccc(O)cc3[C@@]1(C)CCN2C	inactive	
C/C=C(\C)C(=O)OC1C2C3(C)CCC(OC4CC(OC)C(OC5OC(C)C(O)C(OC)C5O)C(C)O4)CC3CCC23OC32CCC(C(C)=O)C2(C)C1OC(=O)/C(C)=C/C (configuration not stated)		inactive: 2.59% [at 11.6 µM]
CCS(=O)(=O)C(C)(C)S(=O)(=O)CC	inactive	
CC1CCCC(O)CCC/C=C/c2cc(O)cc(O)c2C(=O)O1 (configuration not stated)	inactive	
COC(=O)C1=COC(C)C2CN3CCC4(C(=O)Nc5ccccc54)C3CC12 (configuration not stated)	inactive	
OCc1nnc2n1-c1ccc(Cl)cc1C(c1ccccc1Cl)=NC2	inconclusive: 39.8 µM [rising, single point]	
C[C@]12CCC(=O)C=C1CC[C@@H]1[C@@H]2CC[C@]2(C)C(=O)CC[C@@H]12	inconclusive: 12.6 µM [cytotoxic, partial curve, poor fit]	
C=CCC1([C@H](C)CCC)C(=O)NC(=O)NC1=O	inactive	
CCOC(=O)C1(c2ccccc2)CCN(CCC(C#N)(c2ccccc2)c2ccccc2)CC1	inconclusive: 35.5 µM [cytotoxic, partial curve, poor fit]	
CC1CCCC(=O)CCC/C=C/c2cc(O)cc(O)c2C(=O)O1 (configuration not stated)	inconclusive: 5.01 µM [rising, single point]	
O=C(O)c1nn(Cc2ccc(Cl)cc2Cl)c2ccccc12	inactive	
COP(=S)(OC)Oc1ccc(S(N)(=O)=O)cc1	inactive	
CC[C@H]1C[C@@H]2C[C@H]3c4[nH]c5ccc(OC)cc5c4CCN(C2)[C@@H]13	inconclusive: 35.5 µM [cytotoxic, single point]	
COC(C)(C)CCCC(C)C/C=C/C(C)=C/C(=O)OC(C)C (configuration not stated)	inactive	
CCCC(C)(COC(N)=O)COC(=O)NC(C)C (configuration not stated)	inactive	
CN1CN(c2ccccc2)C2(CCN(CCCC(=O)c3ccc(F)cc3)CC2)C1=O	inactive	
c1ccc(C2(c3ccccc3)OC[C@@H]([C@H]3CCCCN3)O2)cc1	inactive	
C[C@]12CC[C@H]3[C@@H](CCC4=CC(=O)CC[C@@H]43)[C@@H]1CC[C@@H]2OC(=O)CCc1ccco1	active: 25.1 µM	

Structure (SMILES)	Potency	activity change, negative = cytotoxicity
c1ccc(CN2CCNCC2)cc1	inactive	
CC(C)N(CCC(C(N)=O)(c1ccccc1)c1ccccn1)C(C)C (configuration not stated)	inconclusive: 1.12 µM	
CC1=CC2(O)/C=C/C(C)(O)C(O)C(O)/C=C/C(=O)OC23C(=O)NC(CC(C)C)C3C1C (configuration not stated)	inactive	
CC(C)(NC(=O)[C@@H](N)Cc1ccc(O)cc1)C(=O)N[C@@H](Cc1cc2ccccc2[nH]1)C(=O)N[C@@H](Cc1ccccc1)C(=O)O (H-Y[Aib][Ala(indol-2-yl)]F-OH)		inactive: 2.34% [at 11.6 µM]
Cc1ccccc1-n1c(Cn2ncc3c(N)ncnc32)nc2cccc(C)c2c1=O	inactive	
CC(=O)O[C@H]1CC[C@H]2[C@@H]3CC[C@H]4CC(=O)C=C(C)[C@]4(C)[C@H]3CC[C@]12C	inactive	
CN(C)C(=O)Oc1cc(OC(=O)N(C)C)cc(C(O)CNC(C)(C)C)c1 (configuration not stated)	inactive	
CCN(CC)CCc1c[nH]c2ccccc12	inactive	
C[C@H]1O[C@@H](n2cnc3c(N)ncnc32)C[C@@H]1O	inactive	
CC(Cc1ccccc1)NCCCCl (configuration not stated)	inactive	
Clc1ccc(CO/N=C(\Cn2ccnc2)c2ccc(Cl)cc2Cl)c(Cl)c1	inconclusive: 25.1 µM [cytotoxic, single point]	
C#CC1(O)CCC2C3CCC4=CC(=O)CCC4=C3C=CC21C (configuration not stated)	active: 11.2 µM	
C[C@]12Cc3nonc3C[C@@H]1CC[C@@H]1[C@@H]2CC[C@@]2(C)[C@H]1CC[C@]2(C)O	inconclusive: 25.1 µM [cytotoxic, single point]	
C[C@]12CC[C@H]3[C@@H](CCC4=CC(=O)CC[C@@H]43)[C@@H]1CC[C@@H]2OC(=O)CCc1ccccc1	inconclusive: 28.2 µM [cytotoxic, single point]	
c1ccc(N2CCNCC2)cc1	inactive	
CC(=O)Nc1cc([As](=O)(O)O)ccc1O	inactive	
COc1ccc2c(c1OC)CN1CCc3cc4c(cc3C1C2)OCO4 (configuration not stated)	inconclusive: 31.6 µM [cytotoxic, single point]	
C=C1C2(C)CC3C(C)(O)C4=CC(=O)OC(C)(C)C4=CCC3(C)C13C(=O)OC(C)C3(O)C2=O (configuration not stated)	inactive	
